# Test results reported in the BET-seq Pho4 binding data (Le et al. 2018).
# The list shows a part of the results. These are noisy estimates, calculated here from bound and input reads.
# Target: T1, Pho4 (S. cerevisiae) (UniProt P07270)
# T1 sequence: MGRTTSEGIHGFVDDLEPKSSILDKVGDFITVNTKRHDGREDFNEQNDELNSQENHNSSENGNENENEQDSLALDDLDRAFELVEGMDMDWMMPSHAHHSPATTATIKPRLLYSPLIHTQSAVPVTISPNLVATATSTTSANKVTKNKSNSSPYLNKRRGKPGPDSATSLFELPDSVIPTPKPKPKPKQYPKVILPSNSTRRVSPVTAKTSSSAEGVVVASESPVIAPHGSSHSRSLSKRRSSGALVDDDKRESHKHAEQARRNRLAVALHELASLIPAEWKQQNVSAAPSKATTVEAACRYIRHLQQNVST
# Experiment: relative binding free energy (BET-seq); higher = weaker binding
# Details: reference: library average
row,Sequence,relative binding free energy [kcal/mol]
1,TGATACACGTGATAGG,0.07
2,GCGGGCACGTGAGGCG,0.16
3,TATGACACGTGCGGGT,0.06
4,ATGGTCACGTGGTTGT,0.07
5,AACGACACGTGTGTGG,0.14
6,GGTTACACGTGTACGT,0.27
7,GGTGACACGTGGTTTC,0.16
8,GGTATCACGTGGGATT,0.05
9,CGCGGCACGTGGCGTT,-0.14
10,AAGTGCACGTGGGTGC,-0.14
11,AGCGCCACGTGGTGTG,-0.21
12,AGGTTCACGTGAGATA,0.42
13,CGATGCACGTGGGGTC,-0.16
14,ATAGGCACGTGAGAGA,0.13
15,TTCTTCACGTGTGGCA,0.27
16,TGGGACACGTGGCTCG,-0.06
17,ATAATCACGTGGCGTA,0.11
18,GGGTTCACGTGCTATA,0.21
19,CTTGACACGTGTAGTG,0.03
20,TCGGTCACGTGACGGT,0.34
21,ATTTACACGTGAAAGT,0.3
22,TCGTGCACGTGCTGAT,0.17
23,TGTGGCACGTGGTGAC,-0.11
24,GCGGTCACGTGTAGCT,0.26
25,TGGACCACGTGGGCGT,-0.25
26,TAGGGCACGTGAAGGA,0.16

row,Sequence,relative binding free energy [kcal/mol]
1,AAGTTCACGTGAGGCG,0.59
2,ATCGACACGTGGCGTG,0.07
3,GGAGTCACGTGCATGT,0.09
4,TGGGACACGTGGGCAT,-0.25
5,TGAGGCACGTGTTGGA,-0.08
6,GTACGCACGTGTGATT,0.13
7,GTCGGCACGTGTCGTG,0.01
8,CTTATCACGTGTTCGT,0.1
9,AAAGTCACGTGTGGGT,0.14
10,GGCAACACGTGGTTGT,-0.06
11,CGTTACACGTGGCGTG,-0.08
12,GTAAGCACGTGGAGTG,-0.15
13,GTGTGCACGTGTGTTG,0.15
14,TTAAACACGTGGTGAA,0.02
15,TGGTACACGTGCAGAG,0.06
16,GGGGTCACGTGTCTGG,0.31
17,TGGGTCACGTGGAAAC,0.28
18,GAGAGCACGTGAAGGT,0.26
19,GGGGACACGTGTGAAA,0.12
20,GAGTGCACGTGTAGGA,-0.01
21,TTAGTCACGTGTCCGA,0.27
22,ACTTACACGTGTGTTG,0.08
23,CTAGTCACGTGGGCGT,0.06
24,TGGAGCACGTGACGTT,0.08
25,GATCTCACGTGGTTGG,0.3
26,GATGGCACGTGTTTCT,-0.04

row,Sequence,relative binding free energy [kcal/mol]
1,TTATTCACGTGGAGTA,0.2
2,CTTGTCACGTGTTCGG,0.07
3,GACTGCACGTGGGTGA,0.05
4,GGGTGCACGTGCGAGG,0.02
5,AATAGCACGTGTTGTG,-0.22
6,GGGAACACGTGTTTTT,0.19
7,GGCGACACGTGTGTAG,0.03
8,GTGTCCACGTGTAATT,0.1
9,TTCGGCACGTGTGTAA,-0.17
10,AGTTGCACGTGGGGGA,-0.09
11,TGAATCACGTGAGGGA,0.24
12,ATGTACACGTGGTTAA,-0.04
13,TGTGCCACGTGTTTAA,-0.15
14,ATATTCACGTGAGAGA,0.34
15,GCTAGCACGTGATGGG,0.05
16,GGAGTCACGTGGAGGG,0.1
17,TGTAACACGTGCTTGA,-0.01
18,AAGTTCACGTGAATGT,0.34
19,TGCATCACGTGGTCTG,-0.05
20,AGGTACACGTGAGTAG,0.1
21,TGTCTCACGTGCGGGG,0.09
22,GAGGACACGTGTTCGG,0.07
23,AGGTTCACGTGGTATG,0.28
24,CGAGACACGTGTTTTG,0.05
25,ATTAGCACGTGTGATG,-0.02
26,TTTGGCACGTGGACTT,-0.2

row,Sequence,relative binding free energy [kcal/mol]
1,TTAGGCACGTGGGTCA,-0.28
2,TTTAACACGTGGAGTC,0.13
3,TTAAACACGTGTAGTG,0.03
4,TTGTACACGTGTGTAA,0.04
5,TAGTGCACGTGATATT,0.05
6,CAGTACACGTGGGTAG,-0.06
7,TAGAACACGTGGGGAG,-0.17
8,GTTCGCACGTGTAGGA,0
9,GCAGTCACGTGGCGTG,0.03
10,AATTGCACGTGTTGAG,0.03
11,TGTCGCACGTGAGGGC,0.17
12,TTCGTCACGTGCGTTT,0.12
13,GGGTACACGTGATGCA,0.26
14,TGTATCACGTGATTGG,0.32
15,TTTGTCACGTGGGGTT,0.06
16,GAAGTCACGTGAGGTA,0.34
17,TAGAACACGTGTGATA,0.18
18,ATTTCCACGTGGTTTA,-0.04
19,CTCGGCACGTGTTTAG,0.08
20,AAGTCCACGTGGTTGG,0.02
21,AATGGCACGTGGTATA,-0.11
22,AGGTGCACGTGTGTAG,-0.03
23,TTAAGCACGTGGTTTA,-0.13
24,GAGTGCACGTGGGTCT,-0.06
25,GGAGTCACGTGTATAG,0.17
26,AAAATCACGTGTGGGC,0.2

row,Sequence,relative binding free energy [kcal/mol]
1,CGTGTCACGTGATTGT,0.25
2,GTGGACACGTGTCTGA,0.14
3,TTAGACACGTGTTCGT,0.07
4,TCGTGCACGTGGAGGG,-0.03
5,GGGGGCACGTGAAGCT,0.13
6,ATATTCACGTGATTTA,0.22
7,TTGTTCACGTGCACGG,0.23
8,GTTTGCACGTGACGCG,0.1
9,GAAGTCACGTGGGTTG,0.07
10,ATTTTCACGTGGTGGG,0.22
11,TATCTCACGTGGGGAG,0.14
12,GAGTGCACGTGAGTTA,0.25
13,TATGTCACGTGTAAGA,-0.13
14,CTGGGCACGTGTTGGT,0.06
15,GTTTACACGTGGGCGC,0.07
16,TTCAGCACGTGTTATT,-0.09
17,CGTGGCACGTGATGGT,0.03
18,GGCTTCACGTGATGTA,0.36
19,TATTACACGTGGAAGT,0.01
20,GAGTCCACGTGGTTGT,-0.1
21,GGGGACACGTGCTTGG,0.14
22,GGGGTCACGTGTGTCT,0.11
23,AAGGTCACGTGAGATT,0.3
24,GGTGGCACGTGAATGT,0.24
25,ATGCTCACGTGATGGG,0.41
26,AGAGACACGTGTGAGT,0.08

row,Sequence,relative binding free energy [kcal/mol]
1,ATTTGCACGTGACGTG,0.02
2,AGTCTCACGTGTGTAA,0.27
3,CTGGACACGTGATGGT,0.29
4,GTCGCCACGTGTTGTG,0.04
5,TCTTTCACGTGTTGTA,0.23
6,TTCTTCACGTGGTTCA,0.21
7,ACTATCACGTGTAGGT,0.19
8,GAATTCACGTGATATT,0.31
9,AGAGTCACGTGTTTCG,0.23
10,CTGTACACGTGTGGAC,0.28
11,TGGTTCACGTGACGTG,0.38
12,TGGAGCACGTGCTGGT,-0.07
13,TTTCACACGTGGTGTT,-0.03
14,GTGTGCACGTGAAGAT,0.27
15,AATGTCACGTGTGTGG,0.16
16,GTAGCCACGTGAGTTT,0.22
17,GTCGTCACGTGGGTTT,0.08
18,TGTGGCACGTGGTCAT,-0.32
19,GGTGTCACGTGAGTCG,0.45
20,TTGTACACGTGGGATT,0.02
21,ATATTCACGTGGTGAT,0.11
22,AGTAGCACGTGGGCTT,-0.25
23,TTATGCACGTGCGGCT,-0.09
24,GAGGTCACGTGCGGGC,0.14
25,CTTAGCACGTGTGTCG,-0.03
26,GGTAGCACGTGGACTT,-0.03

row,Sequence,relative binding free energy [kcal/mol]
1,AGGCTCACGTGGGCGT,-0.03
2,GGGTGCACGTGAGAGG,0.17
3,TGTATCACGTGCAGTT,0.16
4,TCGGTCACGTGACGGG,0.2
5,TAGAACACGTGGGTGG,-0.15
6,GTTTGCACGTGGTCAA,-0.09
7,TTTTACACGTGAATAG,0.33
8,GTGGCCACGTGTTGCG,-0.13
9,GATTCCACGTGGAGGT,0.22
10,TTACTCACGTGAAGGG,0.47
11,AGTGTCACGTGTTTTC,0.01
12,AGGCGCACGTGTAGGG,-0.05
13,AGAATCACGTGGCGTT,0.11
14,TGGTGCACGTGGGACA,-0.16
15,TGATTCACGTGGAAAT,0.47
16,TTAAGCACGTGGTGTG,-0.16
17,GTGGGCACGTGGACAT,-0.07
18,GGGCCCACGTGAAGGG,0.15
19,TGATTCACGTGCGATT,0.34
20,TTTGACACGTGAGAGG,0.23
21,GTGATCACGTGAAATG,0.36
22,CGATACACGTGAGGTT,0.52
23,TGATACACGTGGGACG,0
24,CGGAGCACGTGTGGAG,-0.17
25,GTGGTCACGTGTCATG,0.16
26,AGAGTCACGTGTTCGT,0.04

row,Sequence,relative binding free energy [kcal/mol]
1,GGGTTCACGTGTTCGT,0.35
2,TATGTCACGTGGGTGC,-0.1
3,TAGGGCACGTGAATTA,0.23
4,TTACACACGTGTTTGA,-0.05
5,TGGTGCACGTGCAGGA,-0.11
6,TGCGTCACGTGTTTCT,0.11
7,GGAGGCACGTGAGTGC,0.21
8,AAGTTCACGTGCTAGG,0.21
9,TGTGGCACGTGGCATT,-0.15
10,CGATACACGTGGGCGT,-0.02
11,CTTGGCACGTGGGCGC,-0.18
12,GACTGCACGTGGGGCG,-0.09
13,GGGGACACGTGCTTTA,-0.03
14,ACCTGCACGTGGGTTT,-0.1
15,AGTGGCACGTGATAAG,0.1
16,TTTTTCACGTGTGGAC,0.39
17,TTCAGCACGTGGAGAT,0.01
18,CGAGTCACGTGTGTCT,0.15
19,TTAAGCACGTGATTTC,0.11
20,TTTGACACGTGATCGG,-0.03
21,TCGTTCACGTGCGTTA,0.2
22,CGGTACACGTGATAGT,0.3
23,CAGGGCACGTGTTATT,-0.04
24,GGTTACACGTGGAGAG,0.14
25,CGGTTCACGTGGTGGT,0.2
26,GATGCCACGTGTGGTG,0.1

row,Sequence,relative binding free energy [kcal/mol]
1,GATATCACGTGTATTG,0.15
2,TTAGACACGTGCATTG,0.06
3,TGGAGCACGTGGGCTT,-0.19
4,TTCGGCACGTGTCAGT,-0.11
5,ATAGGCACGTGGTCTA,-0.25
6,TGAGACACGTGGTAAT,0.07
7,AAGTGCACGTGTGCTT,-0.08
8,TATTACACGTGTCGGT,0.14
9,GTTGCCACGTGAGGGA,0.19
10,AGGTCCACGTGGTATG,-0.1
11,ATATACACGTGGGTGC,-0.07
12,TAAGCCACGTGCGGTT,0.04
13,GTATACACGTGATGTC,0.35
14,TGGCTCACGTGGCGGA,0.07
15,TAGAGCACGTGTAATA,0.07
16,TATTTCACGTGGTTGT,0.28
17,ACGTTCACGTGGTAGT,0.21
18,GTGATCACGTGTGAAT,0.26
19,ATGATCACGTGTCTGT,0.11
20,GGCGACACGTGGGAGC,0.16
21,GGTAGCACGTGGTGGT,-0.02
22,TTGAGCACGTGAGGGG,0.14
